In the supplement of paper PMC7125110:
± gives the standard error. Variants at the background level are over-represented here.

B1: glmS ribozyme (parent)
chain: AUAAAAGCGCCAGAACUACAGAAAUGUAGUUGACGAGGAGGAGGUUUAUCGAAUUUUCGGCGGAUGCCUCCAAA

Tests used:
Conditions in all cases: with glucosamine-6-phosphate
glucosamine-6-phosphate [1] = variants of: B1; experiment: self-cleavage kobs at 640 uM GlcN6P; higher = faster cleavage; RNA array
Summary of the method: (§1)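 E. coli RNA polymerase transcribed barcoded ribozyme variants in situ on sequenced MiSeq chips, which were tracked via a hybridised Cy3 probe at 37 °C. Tiles were imaged over ~14 h after glucosamine-6-phosphate (40 μM to 10 mM) in HEPES/KCl/Mg(OAc)2 buffer was flowed in. Normalised per-tile medians were fit to one- or two-exponential decays for kobs, and kcat and KM came from weighted Michaelis–Menten fits.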

glucosamine-6-phosphate [2] = variants of: B1; experiment: self-cleavage kobs at 2500 uM GlcN6P; higher = faster cleavage; RNA array
Summary of the method: as §1

glucosamine-6-phosphate [3] = variants of: B1; experiment: self-cleavage kobs at 160 uM GlcN6P; higher = faster cleavage; RNA array
Summary of the method: as §1

glucosamine-6-phosphate [4] = variants of: B1; experiment: self-cleavage kobs at 10000 uM GlcN6P; higher = faster cleavage; RNA array
Summary of the method: as §1

| Variant | self-cleavage kobs at 640 uM GlcN6P (glucosamine-6-phosphate [1]) [s⁻¹] | self-cleavage kobs at 2500 uM GlcN6P (glucosamine-6-phosphate [2]) [s⁻¹] | self-cleavage kobs at 160 uM GlcN6P (glucosamine-6-phosphate [3]) [s⁻¹] | self-cleavage kobs at 10000 uM GlcN6P (glucosamine-6-phosphate [4]) [s⁻¹] |
| --- | --- | --- | --- | --- |
| AUAAAAUAGCCAGAACUACAGAAAUGUAGUUGACAAGGAGGAGGUUUAUCGAAUCUUCGGCGGAUGCCUCCAAA [G7U C8A G35A U55C] | < 1e-05 |  |  |  |
| AUAAAAUCGCCAGAAUUACAGAAAUGUAGUUGACGAGGAGGAGGUUUAUUGAAUUUUCGGCGGAUGCCUCCAAA [G7U C16U C50U] | < 1e-05 | < 1e-05 |  |  |
| AUAAAAUCGCCAGAAUUACAGAAAUGUAGUUGACCAGGAGCCGGGUUAUCGAAUUUUCGGCGGAUGCCUCCAAA [G7U C16U G35C G41C A42C U45G] | < 1e-05 |  |  |  |
| AUAAAAUCGCCAGAACUACAGAAAUGUAGUUGAAGUGGAGGAGGUUUAUCGAAUUUUCGGCGGAUGCCUCCAAA [G7U C34A A36U] | < 1e-05 |  |  |  |
| AUAAAAUCGCCAGAACUACAGAAAUGUAGUUGACGAGGAGGAGGUUUAUCGAAUUUUCGGGGGAUGACUCCAAA [G7U C61G C67A] | 0.000105 ± 4.6e-05 | 0.00214 ± 0.00087 |  |  |
| AUAAAAUCGCCAGAACUACAGAAAUGUAGUUGACGAGGAGGAGGUUUAUCGAAUUUUCGGCGGAUGACUCCAAA [G7U C67A] | < 1e-05 |  | < 1e-05 |  |
| AUAAAAUCCCCAAAACUACAGAAAUGUAGUUGACGGUGAGGAGGUUUACCGAAUUUUCGGCGUAUGCCUCCAAA [G7U G9C G13A A36G G37U U49C G63U] | < 1e-05 | < 1e-05 |  |  |
| AUAAAAUCGCCAGAACUACAGAAAUGUAGUUGACGACGAGUAGGUUUAUCGAAUUUUCGGCGGAUGCCUCCAAA [G7U G37C G41U] | < 1e-05 | < 1e-05 |  |  |
| AUAAAAUCGCCAGAACUACAGAAAUGUAGUUGACGAGGAGCAGGUUUAUCGAAUUUUAGGCGGAUGCCUCCAAA [G7U G41C C58A] | < 1e-05 | < 1e-05 |  |  |
| AUAAAAUCGCCAGAACUACAGAAAUGUAGUUGACGAGGAGGAGAUUUAUCGAAUUUUCGGCGGAGGCCUCCAAA [G7U G44A U65G] | < 1e-05 | < 1e-05 | < 1e-05 |  |
| AUAAAAUCGCCAGAACUACAGAAAUGUAGUUGACGAGGAGGAGGUUUAUCGAAUUUUCGGCAUAUGCCUCCAAA [G7U G62A G63U] | < 1e-05 |  | < 1e-05 |  |
| AUAAAAUCGCCAGAACUACAGAAAUGUAGAUGACGAGGAGGAGGUUUAUCAAAUUUUCGGCGGAUGCCUCCAAA [G7U U30A G51A] | < 1e-05 |  |  |  |
| AUAAAAUCGCCAGAACUACAGAAAUGUAGUUGACGAGGAGGAGGUUUAUCGAAUUCUCGGCGGAUGCCUCCAAA [G7U U56C] | < 1e-05 | < 1e-05 | < 1e-05 | < 1e-05 |
| AUAAAAGAGCCAGCACUACAGAAAUGUAGUUGACGAGGAGGAGGUUUAUCGAGUUUUCGGCGGAUGCCUCCAAA [C8A A14C A53G] | < 1e-05 | < 1e-05 |  |  |
| AUAAAAGAGCCAGAUCUACAGAAAUGUAGUUGACAAGGAGGAGGUUUAUCGAAUUUUCGGCGGAUGCAUCCAAA [C8A A15U G35A C68A] | < 1e-05 |  |  |  |
| AUAAAAGAGCCAGAACUACAGAAAUGUAGUUGGCGAGGAGGCGGUUUCUCGAAUCUUCGGCGGAUGCCUCCAAA [C8A A33G A42C A48C U55C] | < 1e-05 |  |  |  |
| AUAAAAGAGCCAGAACUACAGAAAUGUAGUUGACGAGGAGGAGGUUUAUCGCAUUUUUGGCUGAUGCCACCAAA [C8A A52C C58U G62U U69A] | < 1e-05 | < 1e-05 | < 1e-05 |  |
| AUAAAAGAGUCAGAACUACAGAAAUGUAGUUGACGAGGAGGAGGUUUAUCGAAUUUUCGGCGGAUGCCUCCAAA [C8A C10U] | < 1e-05 |  | < 1e-05 |  |

| Variant | self-cleavage kobs at 640 uM GlcN6P (glucosamine-6-phosphate [1]) [s⁻¹] | self-cleavage kobs at 2500 uM GlcN6P (glucosamine-6-phosphate [2]) [s⁻¹] | self-cleavage kobs at 160 uM GlcN6P (glucosamine-6-phosphate [3]) [s⁻¹] | self-cleavage kobs at 10000 uM GlcN6P (glucosamine-6-phosphate [4]) [s⁻¹] |
| --- | --- | --- | --- | --- |
| AUAAAAGAGCCAGAAAUACAGAAAUGUAGUUGACGAGGAGGAGGUUUAUCGAAUUUUCGGCGGAUGCCUCCAAA [C8A C16A] | < 1e-05 |  |  | < 1e-05 |
| AUAAAAGAGCCAGAAAUACAGAAAUGUAGUUGACGAGGAGGAGGUUUAUCGAAGUUUCGGCGGAUGCCUCGAAA [C8A C16A U54G C71G] | < 1e-05 |  |  |  |
| AUAAAAGAGCCAGAAGUACAGAAAUGUAGUUGACGAGGAGGAGGUUUAUUGCAUUUUCGGCGGAUGCCUCCAAA [C8A C16G C50U A52C] | < 1e-05 |  | < 1e-05 |  |
| AUAAAAGAGCCAGAAUUACAGAAAUGUAGUUGACGAGGAGGAGGUUUAUCGAAUUUUCGGCGGAUGCAUCCAAA [C8A C16U C68A] | < 1e-05 | < 1e-05 | < 1e-05 |  |
| AUAAAAGAGCCAGAACUACAGAAAUGUAGUUGAUGAGGAGGAGGUUUAUCGAAUCUUCGGCGGAUGCCUCCAAA [C8A C34U U55C] | < 1e-05 |  | < 1e-05 |  |
| AUAAAAGAGCCAGAACUACAGAAAUGUAGUUGACGAGGAGGAGGUUUAUCGAAUUUUCGGCGGAUGACCCCAAA [C8A C67A U69C] | < 1e-05 |  | < 1e-05 | < 1e-05 |
| AUAAAAGACCCAGAACUACAGAAAUGUAGUUGACGAGGAGGAGGUUUAUCGAAUUUUCGGCGGAUGCCUCCAAA [C8A G9C] | < 1e-05 | < 1e-05 | < 1e-05 | < 1e-05 |
| AUAAAAGAGCCAUAACUACAGAAAUGUAGUUGACGAGGAGGAGGUUUAUCGAAUUUUCGGCGGAUGCCUCCAAA [C8A G13U] | < 1e-05 |  | < 1e-05 |  |
| AUAAAAGAGCCAUAACUACAGAAAUGUAGUUGACGAGGAGGAGGUUUAUCGAAUUUUCGGCGGAUGCCUUCAAA [C8A G13U C70U] | < 1e-05 | < 1e-05 | < 1e-05 |  |
| AUAAAAGAGCCAGAACUACAGAAAUGUAGUUUACGAGGAGGAGGGUUGUCGAAUUUUCGGCGGAUGCCUCAAAA [C8A G32U U45G A48G C71A] | < 1e-05 |  |  |  |
| AUAAAAGAGCCAGAACUACAGAAAUGUAGUUGACGAGAAGAAGGUUUAUCGAAUUUUCGGCGGAUGCCUCCAAA [C8A G38A G41A] | < 1e-05 | < 1e-05 | < 1e-05 |  |
| AUAAAAGAGCCAGAACUACAGAAAUGUAGUUGACGAGGAGGAGCUAUAUCGAAUUUUCGGCGGAUGCCUCCAAA [C8A G44C U46A] | < 1e-05 | < 1e-05 |  |  |
| AUAAAAGAGCCAGAACUACAGAAAUGUAGUUGACGAGGAGGAGGUUUAUCGAAUUUUCGCCGGAUGCCUCCAAA [C8A G60C] | < 1e-05 | < 1e-05 | < 1e-05 | < 1e-05 |
| AUAAAAGAGCCAGAACUACAGAAAUGUAGUUGACGAGGAGGAGGUUUAUCGAAUGUUCGGCGGUUGCCUCCAAA [C8A U55G A64U] | < 1e-05 | < 1e-05 |  |  |
| AUAAAAGAGCCAGAACUACAGAAAUGUAGUUGACGAGGAGGAGGUUUAUCGAAUUUGCGGCGGAUGCCUCCAAA [C8A U57G] | < 1e-05 | < 1e-05 |  |  |
| AUAAAAGGGCCCGAACUACAGAAAUGUAGUUGACGAGGAGGAGACUUAUCGAAUUUUCGGCGGAUGCAUCCAAA [C8G A12C G44A U45C C68A] | < 1e-05 | < 1e-05 |  |  |
| AUAAAAGGGCCAGUACUACAGAAAUGUAGUUGACGAGGAGGAGGUUUAUCGAAUUUUCGGCGAAUGCCUUUAAA [C8G A14U G63A C70U C71U] | < 1e-05 | < 1e-05 |  |  |
